# Paper PMC12820563
# Some of the results follow. The list includes weakly bound sequences.
# Target: T1, MBP-FoxP3dN (UniProt Q99JB6)
# T1 sequence: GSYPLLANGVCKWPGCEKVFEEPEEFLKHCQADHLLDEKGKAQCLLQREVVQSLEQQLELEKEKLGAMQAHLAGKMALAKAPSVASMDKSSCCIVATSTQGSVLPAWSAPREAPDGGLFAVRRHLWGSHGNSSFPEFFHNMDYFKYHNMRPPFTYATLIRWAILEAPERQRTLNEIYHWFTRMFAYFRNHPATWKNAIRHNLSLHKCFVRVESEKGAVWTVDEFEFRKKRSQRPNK
# Assay: PD-seq (MBP pull-down with sequencing)
# Conditions: 20 mM Tris-HCl pH 7.5, 100 mM NaCl, 1.5 mM MgCl2, 0.4 uM protein, 0.1 uM dsDNA library, 30 min, room temperature, amylose pull-down; high values mean tight binding; double strand, one strand shown
row,Sequence,binding signal (RPM ratio (pull-down/input))
1,GATGATTGTTCTCCCAGCTGATGAATTAGGAGTTTCGAGTAAACAAATTTTCCTAATCTTTCTGTTCAAGCGCCATCTAC,0.95
2,GATGATTGTTCTCCCAGCTGATGAATTTGTCCATTCGAGTAAACAAATTTTCCTAATCTTTCTGTTCAAGCGCCATCTAC,2.42
3,GATGATTGTTCTCCCAGCTGATGAATTTTTCGCGTCGAGTAAACAAATTTTCCTAATCTTTCTGTTCAAGCGCCATCTAC,0.414
4,GATGATTGTTCTCCCAGCTGATGAATTATACGTATCGAGTAAACAAATTTTCCTAATCTTTCTGTTCAAGCGCCATCTAC,0.75
5,GATGATTGTTCTCCCAGCTGATGAATTGACGTTCTCGAGTAAACAAATTTTCCTAATCTTTCTGTTCAAGCGCCATCTAC,0.613
6,GATGATTGTTCTCCCAGCTGATGAATTGGAGTAGTCGAGTAAACAAATTTTCCTAATCTTTCTGTTCAAGCGCCATCTAC,0.38
7,GATGATTGTTCTCCCAGCTGATGAATTCATGTGCTCGAGTAAACAAATTTTCCTAATCTTTCTGTTCAAGCGCCATCTAC,0.894
8,GATGATTGTTCTCCCAGCTGATGAATTCTGGAAATCGAGTAAACAAATTTTCCTAATCTTTCTGTTCAAGCGCCATCTAC,0.256
9,GATGATTGTTCTCCCAGCTGATGAATTCCCTAGGTCGAGTAAACAAATTTTCCTAATCTTTCTGTTCAAGCGCCATCTAC,0.184
10,GATGATTGTTCTCCCAGCTGATGAATTATTATTGTCGAGTAAACAAATTTTCCTAATCTTTCTGTTCAAGCGCCATCTAC,2.61
11,GATGATTGTTCTCCCAGCTGATGAATTGACTACATCGAGTAAACAAATTTTCCTAATCTTTCTGTTCAAGCGCCATCTAC,0.519
12,GATGATTGTTCTCCCAGCTGATGAATTAGGCTCCTCGAGTAAACAAATTTTCCTAATCTTTCTGTTCAAGCGCCATCTAC,0.814
13,GATGATTGTTCTCCCAGCTGATGAATTTAAATCTTCGAGTAAACAAATTTTCCTAATCTTTCTGTTCAAGCGCCATCTAC,0.312
14,GATGATTGTTCTCCCAGCTGATGAATTTTGTAATTCGAGTAAACAAATTTTCCTAATCTTTCTGTTCAAGCGCCATCTAC,3.43
15,GATGATTGTTCTCCCAGCTGATGAATTTCCTTTATCGAGTAAACAAATTTTCCTAATCTTTCTGTTCAAGCGCCATCTAC,0.431
16,GATGATTGTTCTCCCAGCTGATGAATTGCCTGCTTCGAGTAAACAAATTTTCCTAATCTTTCTGTTCAAGCGCCATCTAC,0.766
17,GATGATTGTTCTCCCAGCTGATGAATTTCGACGCTCGAGTAAACAAATTTTCCTAATCTTTCTGTTCAAGCGCCATCTAC,0.517
18,GATGATTGTTCTCCCAGCTGATGAATTGAAGTGTTCGAGTAAACAAATTTTCCTAATCTTTCTGTTCAAGCGCCATCTAC,0.596
